Measured values published in the supplement of paper PMC10126150.
Sequences with one replicate were seen in a single cluster, so their values are uncertain.

The sequences below were run on ATP (assay: switch fluorescence ratio, 500 uM ATP over buffer (Cy3 cluster intensity, sum of 5 cycles each) (fold (ratio)); higher = stronger signal-on switching upon ATP binding; sequences stand for … in TCGTCGGCAGCGTCAGATGTGTATAAGAGACAGTTTTTTTTTTTTTTTTTTTTTTTTT…TC). Conditions: aptamer strand: ATP DNA aptamer (quencher-CACCTGGGGGAGTATTGCGGAGGAAGG + anchor), 100 nM annealed; ATP concentration: 500 uM; one replicate.
Procedure, shortened: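 Switching-strand clusters labelled with Cy3 on a modified Illumina MiSeq flow-cell were annealed to 100 nM quencher-labelled ATP aptamer, imaged in selection buffer, and re-imaged after 15 min with 500 uM ATP at 22 °C. This was done over five cycles with NaOH stripping and re-annealing in between. The fluorescence ratio is summed target-cycle over summed buffer-cycle Cy3 intensity per cluster, averaged per switch-domain sequence, excluding clusters outside 100-1000 RFU.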
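Also: ATP exposure 15 min at 22 °C before imaging.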

**Q.** For TGTTAACGCT, which switch fluorescence ratio is on record?
**A.** 1.02

**Q.** For TGTTAAGTTC, which switch fluorescence ratio is on record?
**A.** 1.05

**Q.** Which switch fluorescence ratio does the source give for TGTTACAGTA here?
**A.** 1

**Q.** How did the switch fluorescence ratio turn out when TGTTAGCAGC was run?
**A.** 1.08

**Q.** TGTTAGCCTA was tested. Which switch fluorescence ratio did it give?
**A.** 0.996

**Q.** TGTTAGTGTG was tested. Which switch fluorescence ratio did it give?
**A.** 0.933

**Q.** TGTTATACTT was tested. Which switch fluorescence ratio did it give?
**A.** 1.01

**Q.** Which switch fluorescence ratio does the source give for TGTTATGCTA here?
**A.** 0.994

**Q.** How did the switch fluorescence ratio turn out when TGTTATTAAT was run?
**A.** 0.987

**Q.** TGTTATTAG was tested. Which switch fluorescence ratio did it give?
**A.** 0.972

**Q.** With TGTTATTAGG as the sequence, how does the switch fluorescence ratio read?
**A.** 0.951

**Q.** How did the switch fluorescence ratio turn out when TGTTATTGTA was run?
**A.** 0.982

**Q.** Which switch fluorescence ratio does the source give for TGTTCAAGGG here?
**A.** 0.993

**Q.** Which switch fluorescence ratio does the source give for TGTTCAATA here?
**A.** 0.983

**Q.** For TGTTCAGA, which switch fluorescence ratio is on record?
**A.** 0.999

**Q.** With TGTTCAGTAG as the sequence, how does the switch fluorescence ratio read?
**A.** 0.985

**Q.** Which switch fluorescence ratio does the source give for TGTTCCAAAT here?
**A.** 0.96

**Q.** With TGTTCGGTTA as the sequence, how does the switch fluorescence ratio read?
**A.** 1.04

**Q.** How did the switch fluorescence ratio turn out when TGTTCGTGTA was run?
**A.** 0.986

**Q.** Which switch fluorescence ratio does the source give for TGTTGAAGAG here?
**A.** 1.01

**Q.** Which switch fluorescence ratio does the source give for TGTTGCCT here?
**A.** 1

**Q.** TGTTGGAA was tested. Which switch fluorescence ratio did it give?
**A.** 0.983

**Q.** Which switch fluorescence ratio does the source give for TGTTGGCCAA here?
**A.** 0.997

**Q.** With TGTTGGCGGA as the sequence, how does the switch fluorescence ratio read?
**A.** 1.06

**Q.** With TGTTGGGAT as the sequence, how does the switch fluorescence ratio read?
**A.** 0.979

**Q.** How did the switch fluorescence ratio turn out when TGTTGGGCGC was run?
**A.** 1.03

**Q.** With TGTTGGTGAA as the sequence, how does the switch fluorescence ratio read?
**A.** 0.983

**Q.** How did the switch fluorescence ratio turn out when TGTTGTCAA was run?
**A.** 1.01

**Q.** For TGTTTAAAAC, which switch fluorescence ratio is on record?
**A.** 1.04

**Q.** TGTTTAATCT was tested. Which switch fluorescence ratio did it give?
**A.** 1.03

**Q.** For TGTTTGAACC, which switch fluorescence ratio is on record?
**A.** 1.01

**Q.** With TGTTTGTACC as the sequence, how does the switch fluorescence ratio read?
**A.** 1.03

**Q.** Which switch fluorescence ratio does the source give for TGTTTGTCAG here?
**A.** 1.07

**Q.** Which switch fluorescence ratio does the source give for TGTTTTAAT here?
**A.** 1.01

**Q.** With TGTTTTAATA as the sequence, how does the switch fluorescence ratio read?
**A.** 0.965

**Q.** Which switch fluorescence ratio does the source give for TGTTTTCA here?
**A.** 0.994

**Q.** How did the switch fluorescence ratio turn out when TGTTTTGAAG was run?
**A.** 0.979

**Q.** TGTTTTGCC was tested. Which switch fluorescence ratio did it give?
**A.** 1.01

**Q.** For TGTTTTTCCA, which switch fluorescence ratio is on record?
**A.** 1.02

**Q.** TTAAAAACTA was tested. Which switch fluorescence ratio did it give?
**A.** 1.04

**Q.** With TTAAAACAGG as the sequence, how does the switch fluorescence ratio read?
**A.** 1.03

**Q.** For TTAAAACTAA, which switch fluorescence ratio is on record?
**A.** 0.986

**Q.** TTAAAAGTG was tested. Which switch fluorescence ratio did it give?
**A.** 0.967

**Q.** Which switch fluorescence ratio does the source give for TTAAACGTTC here?
**A.** 1.16

**Q.** How did the switch fluorescence ratio turn out when TTAAAGGAAC was run?
**A.** 0.983

**Q.** Which switch fluorescence ratio does the source give for TTAAAGTCCT here?
**A.** 0.99

**Q.** How did the switch fluorescence ratio turn out when TTAAATCCCT was run?
**A.** 1.27

**Q.** Which switch fluorescence ratio does the source give for TTAAATCGT here?
**A.** 0.995

**Q.** TTAAATGGAG was tested. Which switch fluorescence ratio did it give?
**A.** 1.01

**Q.** Which switch fluorescence ratio does the source give for TTAAATTAGA here?
**A.** 0.941

**Q.** For TTAAATTTGT, which switch fluorescence ratio is on record?
**A.** 0.989

**Q.** For TTAACAGCG, which switch fluorescence ratio is on record?
**A.** 0.979

**Q.** TTAACCCTCG was tested. Which switch fluorescence ratio did it give?
**A.** 1.06

**Q.** Which switch fluorescence ratio does the source give for TTAACCTACT here?
**A.** 1.12

**Q.** For TTAACGCAC, which switch fluorescence ratio is on record?
**A.** 1.89

**Q.** For TTAACGGAGT, which switch fluorescence ratio is on record?
**A.** 1.01

**Q.** Which switch fluorescence ratio does the source give for TTAACGTCAA here?
**A.** 1.24

**Q.** Which switch fluorescence ratio does the source give for TTAAGAAATG here?
**A.** 1.36

**Q.** How did the switch fluorescence ratio turn out when TTAAGAACGA was run?
**A.** 0.986

**Q.** With TTAAGCACTG as the sequence, how does the switch fluorescence ratio read?
**A.** 1.13

**Q.** TTAAGGACGC was tested. Which switch fluorescence ratio did it give?
**A.** 1.07

**Q.** TTAAGGGAGT was tested. Which switch fluorescence ratio did it give?
**A.** 0.965

**Q.** Which switch fluorescence ratio does the source give for TTAAGGTGCA here?
**A.** 1.08

**Q.** How did the switch fluorescence ratio turn out when TTAAGGTGGG was run?
**A.** 0.996

**Q.** For TTAAGTAGGT, which switch fluorescence ratio is on record?
**A.** 0.973

**Q.** Which switch fluorescence ratio does the source give for TTAAGTCAGC here?
**A.** 1.05

**Q.** For TTAAGTCATC, which switch fluorescence ratio is on record?
**A.** 0.997

**Q.** With TTAAGTCATG as the sequence, how does the switch fluorescence ratio read?
**A.** 0.983

**Q.** TTAAGTTCGC was tested. Which switch fluorescence ratio did it give?
**A.** 0.971

**Q.** How did the switch fluorescence ratio turn out when TTAATAAATA was run?
**A.** 0.966

**Q.** With TTAATACCAT as the sequence, how does the switch fluorescence ratio read?
**A.** 0.979

**Q.** With TTAATAGG as the sequence, how does the switch fluorescence ratio read?
**A.** 1.01

**Q.** With TTAATATGCC as the sequence, how does the switch fluorescence ratio read?
**A.** 0.945

**Q.** How did the switch fluorescence ratio turn out when TTAATCCTAG was run?
**A.** 0.978

**Q.** How did the switch fluorescence ratio turn out when TTAATCGTCG was run?
**A.** 1.09

**Q.** Which switch fluorescence ratio does the source give for TTAATCTGGT here?
**A.** 1

**Q.** Which switch fluorescence ratio does the source give for TTAATCTTGA here?
**A.** 1.14

**Q.** How did the switch fluorescence ratio turn out when TTAATGGCCG was run?
**A.** 1.07

**Q.** TTAATTCTCG was tested. Which switch fluorescence ratio did it give?
**A.** 1.03

**Q.** Which switch fluorescence ratio does the source give for TTAATTGATT here?
**A.** 1.03

**Q.** Which switch fluorescence ratio does the source give for TTAATTTTT here?
**A.** 0.968

**Q.** How did the switch fluorescence ratio turn out when TTACAAACGA was run?
**A.** 1.29

**Q.** For TTACAGCGTA, which switch fluorescence ratio is on record?
**A.** 1.07

**Q.** With TTACAGGTGG as the sequence, how does the switch fluorescence ratio read?
**A.** 0.975

**Q.** TTACCATAG was tested. Which switch fluorescence ratio did it give?
**A.** 1.12

**Q.** TTACCATGGT was tested. Which switch fluorescence ratio did it give?
**A.** 1.01

**Q.** TTACCATTTC was tested. Which switch fluorescence ratio did it give?
**A.** 1.05

**Q.** With TTACCCATGA as the sequence, how does the switch fluorescence ratio read?
**A.** 0.967

**Q.** TTACCCGGGA was tested. Which switch fluorescence ratio did it give?
**A.** 1.07

**Q.** TTACCCTGCT was tested. Which switch fluorescence ratio did it give?
**A.** 0.996

**Q.** For TTACCGCCAA, which switch fluorescence ratio is on record?
**A.** 1.63

**Q.** For TTACCGGCGA, which switch fluorescence ratio is on record?
**A.** 1.02

**Q.** How did the switch fluorescence ratio turn out when TTACCGTGAT was run?
**A.** 1.19

**Q.** For TTACCTTAGC, which switch fluorescence ratio is on record?
**A.** 1.16

**Q.** Which switch fluorescence ratio does the source give for TTACGAAACA here?
**A.** 1.04

**Q.** With TTACGAGCAC as the sequence, how does the switch fluorescence ratio read?
**A.** 1.66

**Q.** TTACGCCGCG was tested. Which switch fluorescence ratio did it give?
**A.** 1.31

**Q.** With TTACGCGTCG as the sequence, how does the switch fluorescence ratio read?
**A.** 1.1

**Q.** TTACGGACAA was tested. Which switch fluorescence ratio did it give?
**A.** 1.76

**Q.** Which switch fluorescence ratio does the source give for TTACGGCCAG here?
**A.** 1.01

**Q.** TTACGGTAGA was tested. Which switch fluorescence ratio did it give?
**A.** 1.01
